In article PMC10868759 one finds binding data, which are given here for two molecules.

The target in this test is T1, TIP1-Cub-LexA-VP16 (split-ubiquitin bait) (Arabidopsis thaliana) (UniProt Q52T38).
T1 sequence: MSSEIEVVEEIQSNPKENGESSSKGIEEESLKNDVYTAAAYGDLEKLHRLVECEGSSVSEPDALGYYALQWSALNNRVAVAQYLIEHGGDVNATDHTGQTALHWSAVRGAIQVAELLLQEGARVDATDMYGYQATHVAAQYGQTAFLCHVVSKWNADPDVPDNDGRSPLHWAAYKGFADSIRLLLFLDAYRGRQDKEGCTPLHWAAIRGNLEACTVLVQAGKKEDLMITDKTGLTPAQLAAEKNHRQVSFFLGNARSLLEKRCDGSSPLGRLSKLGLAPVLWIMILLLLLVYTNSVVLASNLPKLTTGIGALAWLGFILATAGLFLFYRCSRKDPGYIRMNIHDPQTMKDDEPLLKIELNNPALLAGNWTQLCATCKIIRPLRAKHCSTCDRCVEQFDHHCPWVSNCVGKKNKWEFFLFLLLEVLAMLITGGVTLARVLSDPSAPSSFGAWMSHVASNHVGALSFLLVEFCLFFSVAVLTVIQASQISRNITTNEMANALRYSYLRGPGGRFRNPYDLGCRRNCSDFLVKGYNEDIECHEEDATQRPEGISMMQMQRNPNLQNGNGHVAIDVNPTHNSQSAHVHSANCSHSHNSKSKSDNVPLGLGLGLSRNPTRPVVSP
Description: two-hybrid; split-ubiquitin membrane yeast two-hybrid, NMY51; TIP1-Cub-LexA-VP16 bait, NubG preys; growth on -Ade/-Leu/-Trp/-His with 5 mM 3-amino-1,2,4-triazole, four days at 30°C.

Results are given in words; binding and its absence hold for the method and conditions named. Some binding calls cover weakened binding; strength is not graded here.

B1: NubG-CESA6 (split-ubiquitin prey) (protein, UniProt Q94JQ6 1-1084)
chain: MNTGGRLIAGSHNRNEFVLINADENARIRSVQELSGQTCQICRDEIELTVDGEPFVACNECAFPVCRPCYEYERREGNQACPQCKTRFKRLKGSPRVEGDEEEDDIDDLDNEFEYGNNGIGFDQVSEGMSISRRNSGFPQSDLDSAPPGSQIPLLTYGDEDVEISSDRHALIVPPSLGGHGNRVHPVSLSDPTVAAHPRPMVPQKDLAVYGYGSVAWKDRMEEWKRKQNEKLQVVRHEGDPDFEDGDDADFPMMDEGRQPLSRKIPIKSSKINPYRMLIVLRLVILGLFFHYRILHPVKDAYALWLISVICEIWFAVSWVLDQFPKWYPIERETYLDRLSLRYEKEGKPSGLSPVDVFVSTVDPLKEPPLITANTVLSILAVDYPVDKVACYVSDDGAAMLTFEALSETAEFARKWVPFCKKYCIEPRAPEWYFCHKMDYLKNKVHPAFVRERRAMKRDYEEFKVKINALVATAQKVPEDGWTMQDGTPWPGNSVRDHPGMIQVFLGSDGVRDVENNELPRLVYVSREKRPGFDHHKKAGAMNSLIRVSGVLSNAPYLLNVDCDHYINNSKALREAMCFMMDPQSGKKICYVQFPQRFDGIDRHDRYSNRNVVFFDINMKGLDGLQGPIYVGTGCVFRRQALYGFDAPKKKKGPRKTCNCWPKWCLLCFGSRKNRKAKTVAADKKKKNREASKQIHALENIEEGRVTKGSNVEQSTEAMQMKLEKKFGQSPVFVASARMENGGMARNASPACLLKEAIQVISCGYEDKTEWGKEIGWIYGSVTEDILTGFKMHSHGWRSVYCTPKLAAFKGSAPINLSDRLHQVLRWALGSVEIFLSRHCPIWYGYGGGLKWLERLSYINSVVYPWTSLPLIVYCSLPAICLLTGKFIVPEISNYASILFMALFSSIAITGILEMQWGKVGIDDWWRNEQFWVIGGVSAHLFALFQGLLKVLAGVDTNFTVTSKAADDGEFSDLYLFKWTSLLIPPMTLLIINVIGVIVGVSDAISNGYDSWGPLFGRLFFALWVIIHLYPFLKGLLGKQDRMPTIIVVWSILLASILTLLWVRVNPFVAKGGPILEICGLDCL
Consider B1, for which the binding entry is on record as “binds”.

B2: NubG-CESA3 (split-ubiquitin prey) (protein, UniProt Q941L0 1-1065)
chain: MESEGETAGKPMKNIVPQTCQICSDNVGKTVDGDRFVACDICSFPVCRPCYEYERKDGNQSCPQCKTRYKRLKGSPAIPGDKDEDGLADEGTVEFNYPQKEKISERMLGWHLTRGKGEEMGEPQYDKEVSHNHLPRLTSRQDTSGEFSAASPERLSVSSTIAGGKRLPYSSDVNQSPNRRIVDPVGLGNVAWKERVDGWKMKQEKNTGPVSTQAASERGGVDIDASTDILADEALLNDEARQPLSRKVSIPSSRINPYRMVIMLRLVILCLFLHYRITNPVPNAFALWLVSVICEIWFALSWILDQFPKWFPVNRETYLDRLALRYDREGEPSQLAAVDIFVSTVDPLKEPPLVTANTVLSILAVDYPVDKVSCYVSDDGAAMLSFESLAETSEFARKWVPFCKKYSIEPRAPEWYFAAKIDYLKDKVQTSFVKDRRAMKREYEEFKIRINALVSKALKCPEEGWVMQDGTPWPGNNTRDHPGMIQVFLGQNGGLDAEGNELPRLVYVSREKRPGFQHHKKAGAMNALVRVSAVLTNGPFILNLDCDHYINNSKALREAMCFLMDPNLGKQVCYVQFPQRFDGIDKNDRYANRNTVFFDINLRGLDGIQGPVYVGTGCVFNRTALYGYEPPIKVKHKKPSLLSKLCGGSRKKNSKAKKESDKKKSGRHTDSTVPVFNLDDIEEGVEGAGFDDEKALLMSQMSLEKRFGQSAVFVASTLMENGGVPPSATPENLLKEAIHVISCGYEDKSDWGMEIGWIYGSVTEDILTGFKMHARGWRSIYCMPKLPAFKGSAPINLSDRLNQVLRWALGSVEILFSRHCPIWYGYNGRLKFLERFAYVNTTIYPITSIPLLMYCTLPAVCLFTNQFIIPQISNIASIWFLSLFLSIFATGILEMRWSGVGIDEWWRNEQFWVIGGVSAHLFAVFQGILKVLAGIDTNFTVTSKASDEDGDFAELYLFKWTTLLIPPTTLLIVNLVGVVAGVSYAINSGYQSWGPLFGKLFFAFWVIVHLYPFLKGLMGRQNRTPTIVVVWSVLLASIFSLLWVRIDPFTSRVTGPDILECGINC
With B2, the binding result is reported as “binds”.
